# In the supplement of paper PMC7826260:
# The list shows a part of the results. Viral Rep nickase domains cut single-stranded DNA in vitro for 1 h at 37 °C with 3 µM enzyme; only the middle of the 90-letter strands is printed. Numbers give uncut DNA relative to the enzyme-free pool, as log2; strong cutting gives strongly negative numbers. There is no active / inactive call. Because reads are shares of a total, they shift together; values above 0 arise when much of the pool is cut.
# How the values were obtained:
# Assay in all cases: uncleaved DNA left, log2 of reads against the no-enzyme library (log2 ratio); higher = less cleavage (more negative = more Rep cleavage of the k-mer); sequences stand for … in CTCGTCCG…ACCGGAGA
# [1] = system: T1, Rep nickase domain of Muscovy duck circovirus
# T1 sequence (residues 1-111 of Rep, tag left off): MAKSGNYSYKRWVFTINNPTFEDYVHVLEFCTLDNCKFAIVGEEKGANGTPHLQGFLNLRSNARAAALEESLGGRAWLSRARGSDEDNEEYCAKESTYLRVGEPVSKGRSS
# Method: (§1)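 A pool of 90-nt single-stranded DNAs with seven random bases just before the constant AC of the nick site (name = the seven bases) was cut by 3 µM recombinant His6-SUMO-tagged Rep nickase domain (300 nM DNA, 50 mM HEPES pH 8.0, 50 mM NaCl, 1 mM MnCl2, 1 h, 37 °C, three replicates). Uncut DNA was amplified and sequenced.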
# [2] = system: T2, Rep nickase domain of banana bunchy top virus
# T2 sequence (residues 1-94 of Rep, tag left off): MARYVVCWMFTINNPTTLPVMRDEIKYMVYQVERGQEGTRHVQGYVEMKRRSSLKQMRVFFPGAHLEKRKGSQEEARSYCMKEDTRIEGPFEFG
# Method: as §1
# [3] = system: T3, Rep nickase domain of cabbage leaf curl virus
# T3 sequence (residues 1-116 of Rep, tag left off): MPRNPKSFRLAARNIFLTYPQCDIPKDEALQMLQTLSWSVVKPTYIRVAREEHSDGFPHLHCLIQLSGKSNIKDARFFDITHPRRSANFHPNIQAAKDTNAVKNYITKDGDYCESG
# Method: as §1
# [4] = system: T4, Rep nickase domain of chickpea chlorotic dwarf virus
# T4 sequence (residues 1-124 of Rep, tag left off): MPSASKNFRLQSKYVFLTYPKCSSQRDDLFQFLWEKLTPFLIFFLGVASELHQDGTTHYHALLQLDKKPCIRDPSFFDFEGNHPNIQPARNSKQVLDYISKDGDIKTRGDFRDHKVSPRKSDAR
# Method: as §1
# [5] = system: T5, Rep nickase domain of faba bean necrotic yellows virus
# T5 sequence (residues 1-98 of Rep, tag left off): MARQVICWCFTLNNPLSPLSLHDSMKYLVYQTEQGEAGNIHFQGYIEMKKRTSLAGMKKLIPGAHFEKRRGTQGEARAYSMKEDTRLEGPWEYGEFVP
# Method: as §1
# [6] = system: T6, Rep nickase domain of maize striate mosaic virus
# T6 sequence (residues 1-117 of Rep, tag left off): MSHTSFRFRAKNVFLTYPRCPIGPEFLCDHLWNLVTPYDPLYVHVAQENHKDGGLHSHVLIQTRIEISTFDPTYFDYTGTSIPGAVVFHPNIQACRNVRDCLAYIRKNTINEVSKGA
# Method: as §1
# [7] = system: T7, Rep nickase domain of porcine circovirus 2
# T7 sequence (residues 2-116 of Rep, tag left off): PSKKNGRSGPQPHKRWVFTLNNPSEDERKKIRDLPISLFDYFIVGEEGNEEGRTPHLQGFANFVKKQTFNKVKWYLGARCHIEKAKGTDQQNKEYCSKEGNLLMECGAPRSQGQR
# Method: as §1
# [8] = system: T8, Rep nickase domain of tomato yellow leaf curl virus
# T8 sequence (residues 1-136 of Rep, tag left off): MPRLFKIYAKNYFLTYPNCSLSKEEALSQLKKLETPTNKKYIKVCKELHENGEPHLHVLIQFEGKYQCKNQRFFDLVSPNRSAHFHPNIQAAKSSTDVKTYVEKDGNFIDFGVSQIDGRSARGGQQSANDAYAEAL
# Method: as §1
# [9] = system: T9, Rep nickase domain of wheat dwarf virus
# T9 sequence (residues 1-137 of Rep, tag left off): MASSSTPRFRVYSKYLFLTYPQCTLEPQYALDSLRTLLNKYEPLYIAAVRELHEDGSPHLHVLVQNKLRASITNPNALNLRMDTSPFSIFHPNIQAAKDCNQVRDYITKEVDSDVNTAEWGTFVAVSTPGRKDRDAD
# Method: as §1
Sequence,uncleaved DNA left (log2) [1],uncleaved DNA left (log2) [2],uncleaved DNA left (log2) [3],uncleaved DNA left (log2) [4],uncleaved DNA left (log2) [5],uncleaved DNA left (log2) [6],uncleaved DNA left (log2) [7],uncleaved DNA left (log2) [8],uncleaved DNA left (log2) [9]
AGCCAGT,-0.105,-0.0335,-0.133,0.351,-0.0394,0.232,-0.0964,0.0708,-0.032
CTGGGTT,0.135,-0.0212,0.411,0.161,0.0623,1.17,0.147,0.0748,-0.0155
GCGCAAC,-0.131,-0.137,-0.0386,0.0118,-0.154,0.0862,-0.0451,-0.0816,-0.115
CCTCATA,-0.0859,-0.00887,-0.246,-1.01,-0.0898,-0.492,-0.0599,-0.108,-0.0682
GCAGTCG,0.144,0.157,-0.695,0.0961,0.0561,-0.702,0.21,0.115,0.022
TCTAAGA,0.0819,0.0043,0.0399,0.0768,0.0728,-0.852,0.0152,-0.0952,-0.00197
AGATCGC,-0.154,-0.0266,-0.37,-0.496,-0.121,-1.06,0.00483,-0.1,-0.0912
AGGTCCA,-0.0227,0.0737,0.117,0.0176,0.0293,0.575,-0.0632,0.0704,0.154
GACTCTG,0.0978,-0.0674,0.0506,0.424,-0.029,0.679,-0.0923,-0.00128,-0.0225
GCTGACT,0.153,0.0869,0.0865,0.414,-0.085,0.831,0.22,-0.0412,0.0731
TGGCGCT,-0.0858,-0.181,-0.444,-0.723,-0.131,-0.744,-0.137,-0.22,-0.277
GGTTAAT,-0.193,0.136,0.547,1.48,0.0135,2.01,-1.17,0.105,0.132
TCAGTCA,-0.00487,0.0327,0.128,-1.02,-0.0464,-0.461,0.119,0.0244,0.0569
CCATTGC,-0.0639,-0.142,-0.0552,1.34,-0.00941,1.05,0.078,0.0444,-0.121
GCCCGGT,-0.0905,-0.19,0.159,0.469,-0.206,0.502,-0.0768,-0.302,-0.216
GTATTCT,-0.2,0.0917,0.261,0.685,-0.0146,1.69,-0.127,0.0595,-0.0282
TCCGTCG,-0.13,-0.207,-0.811,-0.133,-0.194,-0.868,-0.0895,-0.0761,-0.234
AAAGGTG,-0.0858,-0.0061,0.0713,0.858,-0.0809,0.75,0.166,-0.0905,0.00756
TCAATGG,0.0802,-0.025,0.213,0.609,-0.0137,0.141,0.12,-0.0557,0.0303
GGAGATG,-0.00288,0.00813,0.352,1.25,0.0656,1.66,0.119,-0.058,-0.0844
ACAGAGG,0.0106,-0.0669,-0.624,-0.404,0.0353,-0.902,0.23,-0.0914,-0.041
CCACTGC,-0.00691,0.132,-0.205,-0.368,0.111,-0.819,0.104,0.026,0.0582
GGTGGCA,0.101,0.0383,0.824,1.72,0.0144,2.2,0.227,-0.00929,0.102
ACCAGTT,0.06,-0.022,-0.326,-1.93,0.154,-1.04,-0.122,-0.0701,-0.0597
GCGCTGT,0.0975,0.02,0.153,0.595,0.07,1.55,0.0152,0.058,-0.0187
AAGCTAT,-0.00811,-0.0871,0.141,0.528,-0.0122,1.29,-2.22,-0.0484,-0.0581
AGCGCCG,-0.0513,-0.0841,-0.229,-0.031,-0.0626,-0.0305,0.026,-0.104,-0.0486
AAGTGTG,0.0388,-0.0394,-0.55,-0.323,0.0782,-0.867,0.0139,0.0842,-0.00505
CGGCCTC,0.0235,-0.0239,0.0963,0.428,-0.0618,1.04,0.00925,0.0474,0.0857
TCTCAAA,0.149,-0.0291,0.2,0.0215,-0.031,-0.191,-0.0816,-0.0353,0.0138
